The supplement of paper PMC12217912
Some of the results follow. The full chains were built here from the parent and the listed change. Inactive controls read about 0.05.

B1: TEV protease; numbered along this chain (parent)
chain: MGESLFKGPRDYNPISSSICHLTNESDGHTTSLYGIGFGPFIITNKHLFRRNNGTLVVQSLHGVFKVKDTTTLQQHLVDGRDMIIIRMPKDFPPFPQKLKFREPQREERICLVTTNFQTKSMSSMVSDTSCTFPSGDGIFWKHWIQTKDGQCGSPLVSTRDGFIVGIHSASNFTNTNNYFTSVPKNFMELLTNQEAQQWVSGWRLNADSVLWGGHKVFMVKPEEPFQPVKEATQL

Variants of: B1
Test: raw area under fraction-flipped curve 0-4 h after induction (AUC4h, not background-subtracted), DNA-recorder readout of cleavage of the substrate (dimensionless); higher = more cleavage of the substrate by the protease variant
Conditions: temperature: 34 °C; time window: 0-4 h after rhamnose induction
Method: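 In vivo DNA recorder in E. coli TOP10(DE3) ΔrhaA at 34 °C. Each TEVp single-site mutant (parent TEVp 0) is paired with a single-site variant of the 7-mer TEVs (canonical ENLYFQ|S). The substrate sits between flexible linkers in a Bxb1-sfGFP-TEVs-SsrA fusion, so cleavage stabilises Bxb1 and speeds flipping of a recombination array, read by NGS. The value is the raw area under the fraction-flipped curve over 0-4 h after rhamnose induction (AUC4h), with ≥20 reads per time point. It is not background-subtracted; inactive controls average about 0.047.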
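Also: Bxb1 expression induced with 0.2% (w/v) L-rhamnose at OD600 near 0.5, cultures sampled hourly, flipped fraction per protease–substrate barcode pair counted by paired-end Illumina sequencing.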

Row | Variant | area with substrate CNLYFQS | area with substrate DNLYFQS | area with substrate FNLYFQS | area with substrate GNLYFQS | area with substrate HNLYFQS | area with substrate INLYFQS | area with substrate KNLYFQS | area with substrate LNLYFQS | area with substrate MNLYFQS | area with substrate NNLYFQS | area with substrate PNLYFQS | area with substrate QNLYFQS | area with substrate RNLYFQS | area with substrate SNLYFQS | area with substrate TNLYFQS | area with substrate VNLYFQS | area with substrate WNLYFQS | area with substrate YNLYFQS
1 | D161W | 0.0538 | 0.0471 | 0.039 | 0.0596 | 0.0508 | 0.0551 | 0.0434 | 0.0737 | 0.0483 | 0.0473 | 0.0514 | 0.0466 | 0.0569 | 0.05 | 0.0479 | 0.0374 | 0.0573 | 0.0487
2 | G162P | 0.0437 | 0.0635 | 0.0284 |  | 0.0581 | 0.0423 | 0.0488 |  | 0.0647 | 0.0074 | 0.0542 |  |  | 0.0489 | 0.0608 | 0.0532 | 0.0604 | 0.0427
3 | Q194F | 0.0871 | 0.0756 |  | 0.0987 | 0.0669 | 0.0719 |  |  |  | 0.0672 |  |  |  |  | 0.0634 |  | 0.0492 | 0.0592
4 | V165T | 0.07 | 0.0698 | 0.0653 |  | 0.0622 | 0.0685 | 0.0742 | 0.0589 | 0.0436 | 0.0469 | 0.0604 |  | 0.0652 | 0.061 | 0.0572 | 0.0325 | 0.0525 | 
5 | V165R | 0.0527 | 0.0424 |  | 0.0494 | 0.0517 |  | 0.082 | 0.0519 |  | 0.0407 | 0.0545 |  |  | 0.0593 | 0.0565 |  | 0.0559 | 0.0691
6 | I164D | 0.057 | 0.0567 |  | 0.0607 | 0.0593 | 0.0567 | 0.0638 | 0.0562 |  | 0.0526 | 0.058 |  |  | 0.0694 | 0.0616 | 0.0604 | 0.0544 | 0.0539
7 | L190M | 0.0824 | 0.0819 | 0.0584 |  | 0.0704 | 0.0659 |  | 0.0664 |  |  | 0.0754 |  | 0.0547 | 0.051 | 0.0648 | 0.0594 | 0.0576 | 0.0606
8 | L190Y | 0.0626 | 0.0749 |  | 0.0737 | 0.0556 | 0.0551 |  |  | 0.059 | 0.063 | 0.0479 |  | 0.0615 |  | 0.0694 |  | 0.0525 | 0.0262
9 | V220M | 0.07 | 0.0736 |  |  | 0.0652 | 0.0633 | 0.0727 |  | 0.0571 |  | 0.0641 |  |  | 0.0667 | 0.0569 | 0.0826 | 0.0578 | 
10 | V220W | 0.0484 | 0.0709 |  | 0.0527 | 0.0645 | 0.0535 | 0.0583 | 0.056 |  | 0.0715 | 0.0356 | 0.0516 | 0.0715 | 0.0448 | 0.0665 | 0.0351 | 0.0572 | 0.0665
11 | R204F | 0.0639 | 0.0792 | 0.0711 | 0.0701 | 0.0654 | 0.0565 | 0.0725 | 0.0699 | 0.0682 | 0.0616 | 0.0656 | 0.0843 | 0.0472 | 0.0811 | 0.106 | 0.0763 | 0.0655 | 0.0646
12 | R204L | 0.0652 | 0.0794 | 0.059 | 0.0656 | 0.0532 | 0.0592 | 0.0588 | 0.0691 |  |  | 0.0699 |  |  | 0.0683 | 0.0643 |  | 0.0609 | 0.0494
13 | Q197D | 0.0512 | 0.0523 | 0.0691 |  | 0.0647 |  |  | 0.0518 | 0.0656 | 0.0654 | 0.0594 |  |  |  | 0.0691 | 0.0593 | 0.0717 | 0.0633
